In all, about 50,000 compounds went through this assay and about 800 (1.6%) showed an effect of 50% or more. Some of the results follow.

The target of the experiment is Bcl-2-like protein 10 (Homo sapiens) (UniProt Q9HD36). The experiment can be described thus: Phenotype converters, Bcl-B/TR3 peptide binding displacement, primary biochemical FP (AID 1240).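 Further: 0% = Bcl-B with tracer peptide and DMSO and 100% = tracer peptide lacking Bcl-B.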 Particulars: GST-Bcl-B / FITC-TR3 peptide fluorescence polarization; stronger effect = higher value; compound at 3.75 mg/L. (In general: In fluorescence polarisation assays a small probe gives low polarisation when free and higher when bound to something large.)
Sequence of UniProt Q9HD36 (Q9HD36 whole entry, looked up): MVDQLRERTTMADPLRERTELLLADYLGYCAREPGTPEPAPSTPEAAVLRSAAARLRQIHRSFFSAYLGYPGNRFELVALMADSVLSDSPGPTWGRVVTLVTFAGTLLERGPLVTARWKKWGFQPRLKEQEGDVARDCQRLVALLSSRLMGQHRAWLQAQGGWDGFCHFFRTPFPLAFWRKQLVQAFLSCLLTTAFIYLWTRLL
As to `C/C(=N\Nc1nc(-c2ccc(C)cc2)nc2ccccc12)c1ccccc1`, the displacement is -0.6%.

For the molecule `Nc1ccc2c(c1)C1C=CCC1C(c1ccc([N+](=O)[O-])cc1)N2` (stereo not given), the displacement turned out to be 2.9%.

Consider `Cc1ccc(-c2nc3cc(Cl)ccc3o2)cc1NS(=O)(=O)c1ccccc1`, for which the displacement was -1.5%.

With `COc1cc(C(=O)N/C(=C/c2ccc(N(C)C)cc2)C(=O)Nc2ccc(C)cc2)cc(OC)c1OC`, the displacement was 2.6%.

Turning to `COc1ccc(C2C3=C(CC(C)(C)CC3=O)Nc3ccccc3N2C(=O)c2ccc(Cl)cc2)cc1OC` (stereo not given), the displacement is -7.8%.

In the case of `COc1cccc(CN2CCN(Cc3ccco3)CC2)c1`, the displacement was -13.5%.

As for `CCOC(=O)c1[nH]c(C)c(C(=O)O)c1C`, the displacement came out at 5.2%.

On to `CC(=O)NN1C(=O)c2ccc(Oc3cccc([N+](=O)[O-])c3)cc2C1=O`, for which the displacement turned out to be 14%.

Regarding `Cc1cc(=O)[nH]c(SCC(=O)N2CCOCC2)n1`, the displacement worked out at 9.2%.

For `O=C(NC(=S)Nc1ccc(F)cc1)c1ccc(Cl)cc1`, the displacement is -3.2%.

In the case of `COc1ccc(CC(=O)N2N=C(c3ccc(F)cc3)CC2(O)C(F)(F)F)cc1OC` (stereo not given), the displacement is -11.8%.

As to `Cc1ccccc1C(=O)Nc1cccc(NC(=O)c2ccccc2[N+](=O)[O-])c1`, the displacement was determined as 10.5%.

On to `Cc1ccc(NC(=O)C(=O)Cc2ccc([N+](=O)[O-])cc2)c(C)c1`, for which the displacement was -15.3%.

As to `COc1ccccc1NC(=O)COc1ccc(Br)cc1C(C)(C)C`, the displacement was found to be 16.1%.

As to `CCOC(=O)C1NN=C(C(=O)c2ccc(OC)cc2)C1c1ccccc1Cl` (stereo not given), the displacement was -7.7%.

On to `COc1ccc(NC(=O)n2nc(C(F)(F)F)nc2N)cc1`, for which the displacement was -1.2%.

As for `O=C1N=C2C=CC=CN2C(=O)C1Cc1ccccc1` (stereo not given), the displacement was 6.9%.

`CCOC(=O)C1=C(N)Oc2c(ccc3ccccc23)C1c1ccc(OC)cc1` (stereo not given): the displacement turned out to be 108%.

With `O=c1[nH]c(=S)[nH]c(O)c1C=Nc1ccccc1-c1ccccc1`, the displacement is -1.6%.

`O=C(COc1ccc(Cl)cc1Cl)Oc1ccccc1[N+](=O)[O-]`: the displacement is -4.5%.

Regarding `O=C(CCN1CCCCC1)c1ccccc1`, the displacement was -11%.

Turning to `CCOC(=O)C1=C(C)NC2=C(C(=O)c3ccccc32)C1c1ccc(OCc2ccccc2)cc1` (stereo not given), the displacement worked out at 9%.

Take `COc1cc(C(=O)NCc2ccc(C(C)C)cc2)cc(OC)c1OC`: the displacement is -13%.

As for `O=C(N=Nc1c(O)n(CN2CCCC2)c2ccc(Br)cc12)c1ccncc1`, the displacement is -1%.

Consider `CC1(C)Cc2c(sc(NC(=O)COc3ccccc3)c2C#N)CS1`, for which the displacement is -8.5%.

`Cc1ccc(-c2nnc(-c3ccc(F)cc3)o2)cc1`: the displacement stood at 0.2%.

For `Cc1ccc(NC(=O)c2ccc(C(=O)N(C(C)C)C(C)C)cc2)cc1`, the displacement is 3.2%.

Take `O=C(COc1ccccc1Cl)Nc1cc(Cl)ccc1C(=O)O`: the displacement was 21.2%.

Regarding `CCOc1cc(/C=C2\SC(=S)N(NC(=O)c3cccc([N+](=O)[O-])c3)C2=O)ccc1O`, the displacement is -44.3%.

For `O=C(Nc1ccc(OC(F)(F)F)cc1)c1cc2n(n1)C(C(F)(F)F)CC(c1cccs1)N2` (stereo not given), the displacement came to 5.9%.

For the molecule `COc1ccc(Cl)cc1N(CC(=O)NCCCC(C)(C)C1OCCO1)S(=O)(=O)c1ccc(C)c([N+](=O)[O-])c1`, the displacement is -9.9%.

In the case of `COc1cccc(C(=O)Nc2ccc(OC)c(OC)c2)c1`, the displacement is -6.1%.

With `O=C(NN1C(=O)/C(=C/c2cccc(Br)c2)SC1=S)c1cccnc1`, the displacement was -9.8%.

Turning to `Cc1cccc(/C=N/NC(=O)C2COc3ccccc3O2)c1O` (stereo not given), the displacement is -3.6%.

With `O=C(Nc1ccc(F)cc1)/C(=C\c1cccs1)NC(=O)c1ccccc1`, the displacement was found to be 7.5%.

`O=C(CSc1nnc2c(n1)[nH]c1ccccc12)Nc1cccc2ccccc12`: the displacement is -1.2%.

Regarding `CC1=CC(C)(C)N(C(=O)Nc2ccc(F)cc2)c2ccc(C)cc21`, the displacement is 27.5%.

With `COc1c(Br)cc2c(cc(C)n2C)c1O`, the displacement was -6%.

With `N/C(=N/OC(=O)c1ccccc1F)c1nonc1N`, the displacement worked out at 1.5%.

With `Brc1ccc(-c2csc(NC3=NCCCCC3)n2)cc1`, the displacement turned out to be 8.9%.

`Cc1nnc(C)n1/N=C/c1ccc(Br)cc1`: the displacement was found to be 12.9%.

In the case of `COc1ccc(-c2nnc(-c3cccs3)o2)cc1OC`, the displacement is -6.7%.

As to `COc1ccc(/C=C2\SC(=O)N(CCC(=O)Nc3cccc(C)c3)C2=O)cc1OC`, the displacement came out at 23.1%.

`O=C(CCNc1cccc(Cl)c1)c1cccs1`: the displacement turned out to be 3.6%.

Consider `COc1cc(C=NN2CCN(Cc3ccccc3Cl)CC2)ccc1OCc1ccccc1`, for which the displacement is -4.7%.

Consider `CC1=C/C(=N\N=C2\NC(=O)C(CC(=O)Nc3ccc(Cl)cc3)S2)CC(C)(C)C1` (stereo not given), for which the displacement is -2.1%.

For `CCCC(=O)Nc1ccc(NC(=S)NC(=O)c2ccco2)cc1`, the displacement is -10.2%.

In the case of `CCCc1c(C)c2cc(C)ccc2[nH]c1=O`, the displacement was -15.6%.

Turning to `CCOc1ccc(N(CC(=O)Nc2ccccc2OCC)S(=O)(=O)c2ccc(SC)cc2)cc1`, the displacement is 15.2%.

Take `CCOC(=O)/C(C#N)=C1/C=C(c2ccccc2)N=C(c2ccccc2)N1`: the displacement was determined as 8.4%.

`CCOC(=O)COc1ccc(/C=C2\C(=O)NC(=O)N(c3cc(C)cc(C)c3)C2=O)cc1Br`: the displacement was -14%.

Turning to `O=C(/C=C/Nc1ccc(Cl)c([N+](=O)[O-])c1)c1ccccc1`, the displacement was 1.9%.

As to `Nc1cccc(-c2cc(C(=O)O)c3ccccc3n2)c1`, the displacement amounted to 3.9%.

For the molecule `COC(=O)C1=C(C)NC2=C(C(=O)c3ccccc32)C1c1cc2c(cc1Cl)OCO2` (stereo not given), the displacement stood at 9.7%.

Consider `COc1ccc(/C(N)=N/OC(=O)c2ccc(I)cc2)cc1`, for which the displacement worked out at 8.8%.

Turning to `Cc1ccc(N2NC(=O)/C(=C/c3ccc(O)c(O)c3)C2=O)cc1C`, the displacement came out at 3.6%.

For the molecule `O=c1c([N+](=O)[O-])c(-n2ccnc2)c2ccccc2n1-c1ccccc1`, the displacement was -2.6%.

Regarding `CCOC(=O)c1ccc(NC(=O)COc2ccc(Cl)cc2C)cc1`, the displacement is -2%.

Consider `COc1ccc(C2Nc3ccccc3C(=O)N2c2ccc(Cl)cc2)cc1Cn1nnc2ccccc21` (stereo not given), for which the displacement turned out to be 20.5%.

In the case of `CC1(C)CC(=O)c2c(oc3ccc(NS(=O)(=O)c4ccc5c6c(cccc46)C(=O)N5)cc23)C1`, the displacement was 27.1%.

With `COc1ccc(C(=O)NCc2cccnc2)c(OC)c1`, the displacement worked out at 15.5%.

With `COc1ccccc1CC(=O)Nc1cccc(Cl)c1C`, the displacement amounted to 3.9%.

In the case of `C=C(C)COc1cc2oc(=O)c3c(c2cc1Cl)CCCC3`, the displacement is 0%.

Take `O=C(c1ccco1)N1CCN(Cc2ccco2)CC1`: the displacement was 11.2%.

`OC(COc1ccccc1Cl)Cn1c2ccccc2c2ccccc21` (stereo not given): the displacement worked out at 18.6%.

Take `COc1ccc(NS(=O)(=O)c2ccc(C3CCCCC3)cc2)cc1`: the displacement was -7.5%.

Take `O=C(O)/C=C\C(=O)Nc1ccc(Cl)c(C(F)(F)F)c1`: the displacement amounted to 8.3%.

Take `O=C1c2cccc3ccc(Cl)c(c23)C(=O)N1O`: the displacement was 9.8%.

On to `NS(=O)(=O)c1ccc(CNC(=S)Nc2ccc(F)cc2)cc1`, for which the displacement is -7.2%.

As to `COc1ccc(C(=O)Nc2ccc(N3CCN(C(C)=O)CC3)cc2)cc1OC`, the displacement amounted to 11.8%.
